# In article PMC4336329 (PLoS ONE, 2015):
# Among all 310,000 compounds or so, about 2,200 (0.71%) showed an effect of 50% or more. The effect is printed as a negative number. The list shows a part of the results.
# Target: human ether-à-go-go-related gene (hERG) potassium channel (human, UniProt Q12809)
# Assay: primary screen, population patch clamp on CHO cells stably expressing hERG
# Sequence of human ether-à-go-go-related gene (hERG) potassium channel (Q12809 whole entry, looked up): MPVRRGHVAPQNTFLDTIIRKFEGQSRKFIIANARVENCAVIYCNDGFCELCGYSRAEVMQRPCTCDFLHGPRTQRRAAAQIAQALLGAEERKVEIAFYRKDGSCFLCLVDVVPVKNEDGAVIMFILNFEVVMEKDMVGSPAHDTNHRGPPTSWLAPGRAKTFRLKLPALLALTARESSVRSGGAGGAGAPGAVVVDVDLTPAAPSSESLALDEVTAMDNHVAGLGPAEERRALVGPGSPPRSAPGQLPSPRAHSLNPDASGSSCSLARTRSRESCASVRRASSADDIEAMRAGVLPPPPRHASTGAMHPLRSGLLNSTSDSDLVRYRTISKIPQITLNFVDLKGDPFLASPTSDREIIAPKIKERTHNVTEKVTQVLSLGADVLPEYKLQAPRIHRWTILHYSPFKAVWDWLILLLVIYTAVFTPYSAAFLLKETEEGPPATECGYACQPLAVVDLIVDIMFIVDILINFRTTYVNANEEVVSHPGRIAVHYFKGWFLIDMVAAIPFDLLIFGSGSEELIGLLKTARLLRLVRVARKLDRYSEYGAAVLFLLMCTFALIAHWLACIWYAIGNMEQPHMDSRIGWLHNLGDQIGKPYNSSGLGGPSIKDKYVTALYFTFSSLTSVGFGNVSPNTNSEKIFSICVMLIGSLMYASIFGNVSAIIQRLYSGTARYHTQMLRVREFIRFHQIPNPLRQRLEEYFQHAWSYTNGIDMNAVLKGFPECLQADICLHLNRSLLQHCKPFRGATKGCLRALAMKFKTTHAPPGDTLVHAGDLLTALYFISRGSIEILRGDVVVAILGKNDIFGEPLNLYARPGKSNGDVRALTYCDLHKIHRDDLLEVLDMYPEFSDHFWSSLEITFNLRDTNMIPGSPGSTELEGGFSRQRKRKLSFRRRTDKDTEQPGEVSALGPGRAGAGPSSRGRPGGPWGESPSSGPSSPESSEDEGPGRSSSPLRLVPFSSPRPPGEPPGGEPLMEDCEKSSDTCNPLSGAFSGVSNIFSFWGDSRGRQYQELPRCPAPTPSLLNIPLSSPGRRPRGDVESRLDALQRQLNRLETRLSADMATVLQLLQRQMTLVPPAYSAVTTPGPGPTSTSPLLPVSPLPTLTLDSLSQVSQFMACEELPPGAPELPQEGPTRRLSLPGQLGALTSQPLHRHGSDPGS
row,Structure (SMILES),"hERG current change (%, negative = inhibition) at 1uM"
1,CC(=NCCCn1ccnc1)C1=C(O)c2ccccc2C1=O,-33.7%
2,CCc1ccc(NC(=O)CSc2nc3cc(C(=O)OC)ccc3c(=O)n2CC2CCCO2)cc1 (centres unmarked),15.2%
3,CC(C)(C)CC(=O)Nc1cc2c3c(c1)CC(=O)N3CCC2,21.4%
4,NC(=S)c1c(Cl)cc(C(F)(F)F)cc1Cl,7.69%
5,CCCN(CCC)C(=O)CSc1nc2n[nH]c(C)c2c(=N)n1-c1ccc(OCC)cc1,8.14%
6,CCn1c(SCC(=O)Nc2nccs2)nnc1-c1ccncc1,13.5%
7,Cc1cccc(C(=O)N2CCC(c3nc(-c4ccc(S(=O)(=O)N5CCOCC5)cc4)no3)CC2)c1,2.03%
8,CCN1C(=O)/C(=C/N(C)c2ccccc2)OC1=S,12.2%
9,S=c1[nH]nc(-c2ccccc2Br)n1Cc1ccccc1,14.2%
10,O=C(NCc1ccc2c(c1)OCO2)c1cccc(F)c1,12.7%
11,COc1nc(NCCO)nc(Nc2ccc([N+](=O)[O-])cc2)n1,-11.6%
12,OCCOCCn1c2ccccc2c2ccccc21,0.304%
13,Cn1c(=O)c2c(nc(NCc3ccco3)n2Cc2ccccc2Cl)n(C)c1=O,13.6%
14,Cc1ccc2nc(-c3ccccc3)c(-c3ccccc3)nc2c1,10.2%
15,O=C(NCc1cccs1)C1CCCCC1,-5.85%
16,Cc1cc(Br)ccc1SCC(=O)OC/C(O)=C(\C#N)c1nc2ccccc2[nH]1,-1.2%
17,CC(NC(=O)CN(Cc1ccccc1)S(=O)(=O)c1ccccc1)c1cccnc1 (centres unmarked),5.56%
18,CCn1ncc(S(=O)(=O)NCc2ccccc2Cl)c1C,4.87%
19,CC(C)Oc1ccc(C(=O)Nc2nnc(C3=COCCO3)o2)cc1,-6.32%
20,CCOC(=O)c1c(C)[nH]c(C)c1S(=O)(=O)NCCCN1CCOCC1,9.16%

row,Structure (SMILES),"hERG current change (%, negative = inhibition) at 1uM"
1,CCCc1cc(=O)n2[nH]c(-c3ccco3)nc2n1,11.3%
2,CC(C)C(=O)Nc1cccc(C(=O)NCc2ccc3c(c2)OCO3)c1,-3.7%
3,O=C(CN1C(=O)NC2(CCc3ccccc32)C1=O)Nc1ccc(Br)cc1F (centres unmarked),10.6%
4,COCC(C)OC(=O)c1c(N)n(CC(C)C)c2nc3ccccc3nc12 (centres unmarked),-46.6%
5,CC1CCCN(C(=S)NC2CCCC2)C1 (centres unmarked),16.8%
6,COCc1ccc(-c2ccc3c(c2)c(C#Cc2ccsc2)c(-c2cc(OC)cc(OC)c2)n3C)cc1,10.1%
7,CC1(c2ccccc2)NC(=O)N(CC(=O)Nc2ccc(N3CCOCC3)cc2N2CCOCC2)C1=O (centres unmarked),15.4%
8,CN1N=C(C(=O)N2CCN(c3ccc([N+](=O)[O-])cc3)CC2)CCC1=O,-42.8%
9,CCOc1cc(/C=C2/C(=N)N3C(=NC2=O)SN=C3S(=O)(=O)C(C)C)ccc1OC(=O)c1ccco1,14.7%
10,COC(CN(C)C(=O)c1cn(C)c2ccc(S(=O)(=O)N(C)C3CCCCC3)cc2c1=O)OC,14.5%
11,Oc1ccccc1-c1cc(-c2ccccc2)no1,12.6%
12,CC(=O)c1c(C)[nH]c(C(=O)CSc2ccc(F)cc2)c1C,9.59%
13,CCOC(=O)CN1C(=O)c2ccccc2C1=O,12.3%
14,COc1ccc(N2CCN(S(=O)(=O)c3ccc(Cl)c(C(F)(F)F)c3)CC2)cc1,8.26%
15,CCOC(=O)c1csc(NNC=O)n1,3.17%
16,Cc1ccccc1C(=O)Nc1c2c(nn1C(C)(C)C)CS(=O)(=O)C2,2.65%
17,O=C(COc1cc2oc(=O)c3c(c2cc1Cl)CCC3)NCCCN1CCOCC1,12.6%
18,O=C(COc1cccnc1[N+](=O)[O-])NCc1ccc2c(c1)OCO2,1.17%
19,CCCCC(=O)Nc1ccc(NC(=O)c2ccco2)cn1,14.8%
20,Cc1nn2c(C)nc3sc4c(c3c2nc1=O)CC(C)(C)OC4,11.9%

row,Structure (SMILES),"hERG current change (%, negative = inhibition) at 1uM"
1,Cc1cccc(/C=N/NC(=O)c2ccc3c(c2)OCCO3)c1O,12%
2,CNC(=O)c1ccsc1NC(=O)CN1C(=O)CCC1=O,11.2%
3,COc1ccc(NC(=O)CSc2nc3ccccc3nc2N2CCOCC2)c(OC)c1,13.3%
4,CC(OC(=O)c1oc2ccccc2c1CSC1CCCCC1)C(=O)NC(N)=O (centres unmarked),9.98%
5,CCOc1cccc(/C(O)=C2/C(=O)C(=O)N(CCOC)C2c2ccco2)c1 (centres unmarked),8.52%
6,O=C(CSc1nc2ccccc2[nH]1)N1CCCCC1,-1.05%
7,O=C(COn1nnc2ccc(Cl)cc21)Nc1ccc(F)cc1,12.9%
8,CCN(CC)/C(Sc1ccccc1)=C(\C(Cl)=C(Cl)Cl)[N+](=O)[O-],11%
9,C[n+]1ccccc1/C=N/O.[Cl-],13.4%
10,CC1=C(C#N)C(=O)N(C2CCS(=O)(=O)C2)C(=O)/C1=C\c1ccc(C)o1 (centres unmarked),10.4%
11,CCOc1ccccc1OCC(=O)NC1CCCCC1,-5.56%
12,CSc1ncc2ncn(C3OC(CO)C(O)C3O)c2n1 (centres unmarked),14.5%
13,CCOC(=O)C1=C(C)NC(=NC)SC1c1ccccc1 (centres unmarked),11.1%
14,O=C(Nc1ccc(Cl)c([N+](=O)[O-])c1)c1ccc(NCCCN2CCOCC2)c([N+](=O)[O-])c1,-1.88%
15,COc1ccc(/C=C/C(=O)NCc2ccc(F)cc2)cc1S(=O)(=O)N1CCOCC1,3.16%
16,CCCCCC(=O)c1ccc(O)cc1O,13.5%
17,O=C1CC(c2ccccc2)n2nc(NC(=O)C3CCCO3)nc2N1 (centres unmarked),-3.45%
18,CCOc1cc2c(cc1/C=C(/C#N)c1ccc(C(=O)O)cc1)OCO2,12.9%
19,CC(C)C(=O)Nc1cccc(-c2nc3ccccc3o2)c1,8.98%
